Test results reported in PubChem BioAssay (NCATS).
Some of the results follow. Shown are side measurements of this screen, not its main read-out; they come without a call. Compounds called inactive in the main read-out are mostly missing here. Words in brackets tell the shape of the fitted curve; partial curves, single points and poor fits give uncertain potencies.

Assay: qHTS Assay for Lipid Storage Modulators (AID 1519)
Details: Drosophila S3 cells, BODIPY lipid droplet/cell ratio, laser cytometry; measured here: lipid (BODIPY) channel AC50; cells loaded with oleic acid
Outline: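 Cells seeded at 5,000 per well were treated with compounds over a concentration series and loaded with oleic acid (400 uM, as added). Lipid droplet fluorescence (488 nm excitation, 500-530 nm channel) was read by laser-scanning cytometry and normalized to 20 uM Triacsin C.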
Tags give direction and shape of the fitted curve.

SMILES	AC50
CC[N+](CC)(CC)CC(=O)Nc1c(C)cccc1C	31.6 µM [rising, partial curve, poor fit]
O=c1c(-c2cccs2)nc2cnc(N3CCNCC3)nc2n1Cc1cccs1	39.8 µM [falling, single point]
O=C(c1ccncc1)N1CCC[C@@]2(CCN(c3ccccc3)C2)C1	17.8 µM [rising, partial curve, poor fit]
COc1ncc2nc(-c3cccs3)c(=O)n(Cc3ccc(F)cc3)c2n1	0.126 µM [rising, full curve]
COc1ccc(C(=O)N2CCC[C@@]3(CCN(C(=O)Nc4cccc(F)c4)C3)C2)cc1	5.01 µM [rising, partial curve]
O=c1c(-c2ccc(F)cc2)nc2cnc(Nc3ccccc3)nc2n1C1CC1	0.0501 µM [rising, full curve, poor fit]
Cn1cc(-c2nc3cncnc3n(C3CC3)c2=O)c2ccccc21	0.562 µM [rising, full curve, poor fit]
COc1cc(/C=C\c2ccc(OC)cc2OC)cc(OC)c1	3.98 µM [rising, full curve]
Cn1c(=O)c(CCc2ccccc2)nc2cnc(Oc3ccccc3)nc21	0.794 µM [rising, single point]
COc1ccc(Oc2ncc3nc(CCc4ccccc4)c(=O)n(CCC#N)c3n2)cc1	2.82 µM [rising, partial curve]
Cc1cnc(CNc2ccnc(-c3cccc(NS(C)(=O)=O)c3)n2)cn1	1.26 µM [rising, full curve]
Oc1ccc(/C=C\c2cc(O)cc(O)c2)cc1	14.1 µM [rising, partial curve, poor fit]
O=C(c1ccc(F)cc1)C1CCN(CCCCc2ccccc2)CC1	15.8 µM [rising, partial curve, poor fit]
N#CCCn1c(=O)c(CCc2ccccc2)nc2cnc(Oc3ccccc3)nc21	0.178 µM [rising, full curve, poor fit]
COc1cccc(Cn2c(=O)c(C)nc3cnc(N4CCOCC4)nc32)c1	0.2 µM [rising, full curve]
O=C(Nc1ccccc1)[C@@]12C[C@@H]1/C(=N/O)c1ccccc1O2	7.08 µM [rising, partial curve]
COCCn1c(=O)c(CCc2ccccc2)nc2cnc(N3CCNCC3)nc21	2.82 µM [rising, partial curve]
CN1CCN(c2nc(-c3ccccc3C(F)(F)F)nc3ccccc23)CC1	5.01 µM [rising, single point]
Cc1noc(C)c1C(=O)N1CCC2(CCCN(C(c3ccccc3)c3ccccc3)C2)CC1	0.02 µM [rising, full curve, poor fit]
CN(C)C(=O)c1ccc(-c2nc(N3CCOCC3)c3ccccc3n2)cc1	3.98 µM [rising, single point]
CN(Cc1ccco1)c1cc(-c2ccccc2C(F)(F)F)ncn1	5.01 µM [rising, full curve]
Nc1ncnc2c1nc(Br)n2C1OC(CO)C(O)C1O (stereo not given)	25.1 µM [rising, partial curve, poor fit]
CS(=O)(=O)N1CCC2(CC1)CN(c1ncccn1)C2	0.708 µM [rising, full curve]
CN(C)c1ncc2nc(CCc3ccccc3)c(=O)n(-c3ccccc3)c2n1	2.24 µM [rising, partial curve]
COc1ccc(Oc2ncc3nc(CCc4ccccc4)c(=O)n(C4CC4)c3n2)cc1	3.16 µM [rising, partial curve]
CCNc1ncc2nc(-c3ccccc3)c(=O)n(Cc3cccc(OC)c3)c2n1	1 µM [rising, full curve, poor fit]
O=c1c(-c2cc(F)cc(F)c2)nc2cnc(N3CCOCC3)nc2n1Cc1ccc(F)cc1	4.47 µM [rising, partial curve, poor fit]
OC[C@H]1O[C@@H](OC[C@H]2O[C@@H](O)[C@H](O)[C@@H](O)[C@@H]2O)[C@H](O)[C@@H](O)[C@@H]1O	15.8 µM [rising, single point]
COc1ccccc1CNc1ccnc(-c2c(C)noc2C)n1	1.26 µM [rising, partial curve]
CN(C)c1ncc2nc(-c3cc(F)cc(F)c3)c(=O)n(CCc3ccccc3)c2n1	0.562 µM [rising, full curve]
